Experimental data as given in the supplement of paper PMC10126150.
Sequences with one replicate were seen in a single cluster, so their values are uncertain.

These sequences were tested on ATP (assay: switch fluorescence ratio, 500 uM ATP over buffer (Cy3 cluster intensity, sum of 5 cycles each) (fold (ratio)); higher = stronger signal-on switching upon ATP binding; sequences stand for … in TCGTCGGCAGCGTCAGATGTGTATAAGAGACAGTTTTTTTTTTTTTTTTTTTTTTTTT…TC). Settings: aptamer strand: ATP DNA aptamer (quencher-CACCTGGGGGAGTATTGCGGAGGAAGG + anchor), 100 nM annealed; ATP concentration: 500 uM; one replicate.
Procedure, shortened: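 Cy3-labelled switching-strand clusters on a modified Illumina MiSeq flow-cell were annealed to 100 nM quencher-labelled ATP aptamer, imaged in selection buffer, then imaged after 15 min with 500 uM ATP at 22 °C. Five buffer/ATP cycles ran, with NaOH stripping and re-annealing between them. The fluorescence ratio is summed target-cycle over summed buffer-cycle Cy3 intensity per cluster, averaged per switch-domain sequence. Clusters outside 100-1000 RFU were excluded.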
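Note: ATP exposure 15 min at 22 °C before imaging.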

Row | Sequence | switch fluorescence ratio
1 | AACTAGGTGG | 1.04
2 | GCTTTGGGGG | 1.02
3 | ATCCTTCACT | 1.12
4 | GGACGGTTAG | 0.971
5 | AAACGGTACG | 1.01
6 | ACGATTCTTG | 1.02
7 | GCAGTCGCAT | 0.959
8 | AGCATGGCGT | 1.04
9 | TATAAAATAA | 1.06
10 | AGGTCCATTG | 0.985
11 | TGAACCTGTT | 0.946
12 | GTCGATGCTT | 1
13 | GCATAAAATA | 1.06
14 | CGCGTTAGAA | 1.02
15 | GAAGACCAGG | 0.982
16 | TCTTTATCGT | 1.01
17 | GCGTCACCTT | 1.03
18 | GGGTATTTCG | 1.06
19 | AAGGCAGCCG | 1.07
20 | ACGGAAATAC | 3.04
21 | TGGGGCTAGA | 1.01
22 | CTGGGGATC | 1.06
23 | ACTTTGAGAG | 0.957
24 | TACCGGGCAG | 1
25 | AGTCCGGTGT | 1.03

Row | Sequence | switch fluorescence ratio
26 | AGGTCATCAC | 1.02
27 | TCGGGGCAAT | 3.63
28 | AAGATCCCCG | 0.988
29 | TCCGATCCCA | 1.04
30 | AGTATTGTTA | 0.961
31 | TTTACGTGGC | 1.16
32 | ATTTGGTACG | 0.983
33 | AGTACATATG | 1.12
34 | AGGAATGTCG | 1.47
35 | TCTTCAGGTT | 1
36 | GAAGTCGCGG | 0.987
37 | GCGTGTCGTC | 1.03
38 | GCTAATGGCA | 0.985
39 | CTTTTCCTGT | 1.14
40 | ACTTCAGGTC | 1.02
41 | TTGACGCCG | 1.04
42 | TTATTGTGAG | 0.993
43 | CACGGGTTAT | 1.02
44 | TCGAGTAACG | 1
45 | AGTCACTTGC | 1.03
46 | AACGATATA | 1.06
47 | GTGTCTTCCA | 1.03
48 | GGAATTGTGA | 0.982
49 | TCGGTAGTCT | 0.987
50 | GTTGATTGTT | 0.995

Row | Sequence | switch fluorescence ratio
51 | GCTACACTCA | 1.08
52 | GGGCAGCGAG | 0.988
53 | GTCCCCGAAT | 1
54 | TTTACAAACG | 1.33
55 | GTGGACCTTT | 0.979
56 | CAGTTTGGTG | 0.962
57 | AGGTTACAGT | 1.06
58 | TTTGGAAGTC | 1.02
59 | AACGTGACAT | 1.22
60 | GTCAGGTGAT | 1.75
61 | AGGATATCT | 0.997
62 | ACCTACTGGT | 1.05
63 | GTCTTTCCAA | 1
64 | GATTCCGGCG | 1.17
65 | AATGAGTACT | 1.06
66 | AGGGCCGTGT | 0.985
67 | GGTCCGGACG | 0.965
68 | AGGGCGGCAA | 0.999
69 | ATTCGCGAG | 1.01
70 | ATTGCAATAG | 2.27
71 | CATTATCGAG | 1
72 | TCTGCGAT | 1.24
73 | CCTGCCCTGC | 1.16
74 | CATTTTTCCA | 0.981
75 | TCCAGATTG | 1.02

Row | Sequence | switch fluorescence ratio
76 | ATCTGAACGG | 1
77 | TGACTCATTC | 1.08
78 | ACATTTCCAG | 1.05
79 | AAAGCGGAAG | 0.983
80 | CTGGGTGCGG | 0.985
81 | CAAAGCCCGG | 0.961
82 | GCATCAGCCC | 1.01
83 | GAGCGGGGCA | 1
84 | TTTTGAATGA | 1
85 | TTTTATAGAG | 0.999
86 | GGGATCACGA | 1.03
87 | GAGTCAATT | 1.03
88 | CAACAGTCGC | 1.03
89 | ATAGCCCTAT | 0.976
90 | TTATGCATTC | 1.14
91 | CTTTGTGGAG | 0.954
92 | ATGAACGTTG | 1.02
93 | GCCGAGGCGA | 1.06
94 | GCTGTAGCTA | 1.04
95 | TGGTGTTTA | 0.995
96 | ATCTGCTCGC | 1.07
97 | GTTAGATTAA | 1
98 | GTTTAGCCT | 1.03
99 | GGACCTTTCG | 1.03
100 | CTCTACCTGT | 1

Row | Sequence | switch fluorescence ratio
101 | TTACGAGTTT | 0.993
102 | TTTAGGTGGG | 1.05
103 | TACGTGTCCT | 1.02
104 | CTGGTTGGAT | 0.948
105 | CGGACAATTA | 1.15
106 | TCGCGGTAGC | 1.01
107 | CCTTGGAAAA | 0.989
108 | GGAACCATTT | 1.01
109 | TAGTGGTACG | 0.966
110 | GCTTAGGTTT | 1.02
111 | GATCGTGAAG | 1
112 | ACACAAGGGT | 1.04
113 | CGCGGCATTC | 3.19
114 | ATATTCAGTG | 0.972
115 | AAAAAAGTCA | 1.02
116 | GTCAATCTCT | 1.07
117 | TTAGAACATT | 1.01
118 | TCTAGGATAT | 1.02
119 | AAATCAAGTA | 1.01
120 | TAGGCGAGG | 0.973
121 | CGCTAACTAT | 1.16
122 | CTGCCTCTAT | 1.03
123 | TCGGGTGAAT | 1
124 | ATTTCACGAC | 1.04
125 | GTTATATGAT | 1.03

Row | Sequence | switch fluorescence ratio
126 | TCAGGAACCG | 0.981
127 | ATGACCTGTT | 1.03
128 | ATCAAGCGAC | 1.1
129 | ACGTGGAGGC | 1.02
130 | ATTGGGTC | 0.982
131 | CCACTTTCCA | 0.999
132 | TATCGAACCT | 2.14
133 | ACTTGGCGCA | 1.04
134 | AGAGACGACC | 1.09
135 | TTGGACCACT | 1.01
136 | ATGAGGTCAC | 0.998
137 | CGACTTACAC | 1.29
138 | CAATATGAT | 1.03
139 | CGCTAGGGGC | 1.07
140 | CGGGTCATGG | 1.04
141 | GCCATGTGGT | 0.994
142 | ACCCACACAG | 1.37
143 | AGCCGCATAG | 5.86
144 | ACATTCCGAA | 1.2
145 | TTTTAGCTC | 1.06
146 | CAATGCCTCA | 1.03
147 | GGGTCCGATA | 0.998
148 | CTCATTGACT | 1.08
149 | CGTACGTTCA | 1.03
150 | GTCCAAATCG | 1.16

Row | Sequence | switch fluorescence ratio
151 | TTTGTTGTGA | 0.982
152 | ACAGGGAATA | 1.08
153 | TAAAATGCAG | 0.96
154 | CGAGTCTTTC | 1.06
155 | ATTCGACAGC | 1.03
156 | CGTAAGAAAC | 3.65
157 | CAGACCAACC | 1.19
158 | GTGAATGGTA | 0.994
159 | GGAAACGTGT | 0.966
160 | TACGAAATCG | 1.03
161 | TGGCCCTAGG | 1.06
162 | ATGTATAATG | 0.955
163 | AGGGTTGATT | 1.03
164 | GAGGTTAGAA | 1.01
165 | CCAGCAGCCC | 1.96
166 | GCGAATTCGA | 1.01
167 | AAAGGGGCTT | 1.06
168 | GTGTATGTCA | 0.992
169 | ATATCAGATT | 0.962
170 | AGGCTGGCTG | 0.976
171 | ACAATGGGAA | 1.04
172 | CATAAGCCAT | 0.998
173 | CTATTCATAT | 1.05
174 | CCTGATTACG | 1.08
175 | CCTGGTATAT | 1.04

Row | Sequence | switch fluorescence ratio
176 | ACTCCCTAAA | 1.27
177 | CCCCGATCTT | 1.01
178 | GGGAGCAGCA | 1.04
179 | ACGGGCAAAA | 0.905
180 | AAGTTGTTTT | 1.02
181 | GAGTTAACAT | 0.977
182 | TCATGGTGAC | 0.988
183 | GGGTTCGTTT | 0.984
184 | CGTTCATGTT | 1.01
185 | AATAGCGTTA | 1.09
186 | TGGAGAGATG | 1.04
187 | GATGTTCATG | 0.983
188 | CGGATTAGCG | 0.994
189 | AATTCCTGTC | 0.887
190 | TAGTCTATTC | 1.01
191 | ACAAAAGAAT | 0.978
192 | CCCACCCCAC | 1.29
193 | CGTCGAATGA | 0.964
194 | GGAAAAGAAT | 1.02
195 | TCAGGGACCA | 1.04
196 | TTAGGAAGGA | 0.985
197 | GGAATAAATC | 0.975
198 | GTCAGGGCTC | 0.962
199 | TGATGGAGCA | 0.963
200 | AGTGTCTTGT | 0.991
